Assay results as given in the supplement of paper PMC3334620.
Over roughly 33,000 sequences, “E-score (-0.5 to 0.5)” has its median near -0.04; the highest 2% begin near 0.36. The list shows a part of the results.

What follows are sequences tested against T1, Hmlalpha2 (UniProt P0CY09) (assay: PBM E-score (8-mer binding enrichment) (E-score (-0.5 to 0.5)); higher = stronger / more preferred TF binding; most listed sequences are background and not binding sites). Settings: protein concentration: 200 nM; construct: GST-full length.
T1 sequence: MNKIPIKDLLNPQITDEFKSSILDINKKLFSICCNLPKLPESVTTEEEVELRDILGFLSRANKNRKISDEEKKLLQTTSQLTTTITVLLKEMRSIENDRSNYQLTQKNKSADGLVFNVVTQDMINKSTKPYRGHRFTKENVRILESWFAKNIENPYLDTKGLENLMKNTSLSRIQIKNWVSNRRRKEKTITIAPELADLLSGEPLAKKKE
Summary of the method: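 Yeast transcription factors carrying a GST tag, as full-length proteins or DNA-binding domains, were produced by PURExpress in vitro transcription/translation. About 100-200 nM protein was applied to universal all-10-mer Agilent arrays, double-stranded by primer extension on fresh or once-stripped slides. Bound protein was detected with fluorescent anti-GST, and scans were normalised with masliner. The Universal PBM Analysis Suite gave each ungapped eight-base word, pooled with its reverse complement, an E-score, a modified Wilcoxon-Mann-Whitney statistic.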

Row | Sequence | PBM E-score
1 | CTAGTCCA | -0.155
2 | GAATCGGA | -0.0698
3 | GGCAACGA | 0.0854
4 | CGAAGGGA | -0.212
5 | CGGTCTCC | -0.24
6 | ACGATACG | 0.103
7 | CAACCCCA | -0.0316
8 | CAAAGTGA | -0.0862
9 | CAGACACC | -0.248
10 | AGTTTGAT | -0.0815
11 | AACGCGAG | 0.107
12 | TAGGATCA | -0.0383
13 | ATGTCAAA | 0.354
14 | AAACACTT | 0.141
15 | GCTGCAGA | 0.0784
16 | GACACTTA | 0.106
17 | GCAACCCA | 0.0135
18 | GCCCCGGA | -0.354
19 | ACACGCAA | 0.35
20 | AGACGTAT | 0.0644
21 | GGCGCACC | -0.268
22 | CCAAACCA | -0.126
23 | AGTGATCA | -0.111
24 | GTTATTAA | 0.323
25 | AACTGCAG | -0.0779

Row | Sequence | PBM E-score
26 | ATAAAGGC | -0.216
27 | ACCCGTAC | -0.091
28 | AGAACTCA | -0.00582
29 | AGTAGTGG | -0.0672
30 | CGGGTCTA | 0.0357
31 | ACTGACCC | -0.232
32 | ACATGTCA | 0.402
33 | AGGCGGGC | -0.35
34 | AATTAGAA | 0.0299
35 | ATCGGAGC | -0.31
36 | ATAAGGGA | -0.0894
37 | AGGCTCGC | -0.208
38 | AACGTAAT | 0.379
39 | CGAAGGAA | -0.0436
40 | ATTCTAAA | 0.214
41 | AGATTAAA | 0.218
42 | CCATTGAC | -0.0334
43 | CCAGCCGC | -0.247
44 | AGAGTACG | -0.027
45 | TCCGTTCA | 0.0122
46 | GAGGGACA | -0.338
47 | ATGTTAAT | 0.447
48 | CATGCTCG | 0.0136
49 | CAAAGGGC | -0.183
50 | ATGGGACG | -0.19

Row | Sequence | PBM E-score
51 | GTAGTATA | 0.233
52 | AAATGGCA | -0.0457
53 | AAGGCTTA | -0.071
54 | AGTGTTAC | 0.221
55 | AGGCGCCG | -0.0461
56 | ACCGCATG | 0.0197
57 | ACGCTTGA | 0.175
58 | ATTACCTG | 0.192
59 | CCGCAGCA | -0.179
60 | CTTTTAAA | 0.136
61 | AAGGCCGT | -0.14
62 | AAATGGGG | -0.12
63 | ATAGGACA | -0.131
64 | CCACGTTA | 0.239
65 | ACTATCCA | -0.16
66 | CTAGAGTA | -0.0114
67 | AACCCTTC | -0.176
68 | CTCCCTCA | -0.246
69 | ATCAATAG | -0.00766
70 | AATTCGTC | -0.00347
71 | ATGGACCA | 0.0842
72 | CGGCGGAA | -0.204
73 | AATCTAAT | 0.144
74 | ATCCGTGC | 0.0886
75 | GTGTGTTA | 0.435

Row | Sequence | PBM E-score
76 | CGCGCAAC | 0.00267
77 | GCACTGAC | -0.107
78 | GAGGACCA | -0.111
79 | CATAGGAA | -0.152
80 | GGCTATGA | -0.141
81 | TATTTGGA | -0.0484
82 | CCCAGACA | -0.0474
83 | AGTCCTCC | -0.217
84 | CCACGAGA | -0.244
85 | ACACCAGT | -0.084
86 | AGAACCCA | -0.135
87 | GCCCTGGA | -0.335
88 | CCCGATGC | -0.314
89 | ACACAAAC | 0.303
90 | CCGAATCA | -0.159
91 | GCATGCAC | 0.101
92 | GCCATTAA | -0.00827
93 | TAGGGGAA | -0.236
94 | ACAGTCCC | -0.307
95 | ACCCCATA | -0.178
96 | CCTTGAAG | -0.0345
97 | AGAAGGAT | -0.0473
98 | GCGTTATA | 0.218
99 | GACTCCCA | -0.265
100 | CACATCAA | 0.0801

Row | Sequence | PBM E-score
101 | TACGTGCA | 0.169
102 | CATGGGTC | -0.121
103 | GAATCAAC | 0.174
104 | AGCTCTAG | -0.0541
105 | GACACGAA | 0.2
106 | GGGTCGTA | -0.0117
107 | CTCAGGCC | -0.186
108 | CGTGCCTA | -0.236
109 | CGTATATC | 0.0485
110 | ACCGCAAC | 0.121
111 | ATCCCCCC | -0.435
112 | CGCCAGGC | -0.143
113 | ACTCCGCT | -0.0163
114 | AGTACTCG | 0.193
115 | CTTTTCCA | -0.265
116 | AGTTCACA | 0.151
117 | AGGTTAGA | -0.226
118 | TCAATCAA | 0.183
119 | ATGGAGTG | -0.12
120 | ACTATCAT | 0.0111
121 | AAACGGCT | -0.193
122 | AAGTGAAG | -0.0328
123 | TACCACAA | 0.237
124 | AGCAGGCA | -0.21
125 | TCCTAACA | 0.246

Row | Sequence | PBM E-score
126 | AGTCGATC | -0.217
127 | AAAACACC | 0.16
128 | ACGACAAA | 0.171
129 | ACGTAGCG | 0.0984
130 | CTTCAGCC | -0.232
131 | CAAGGTCG | -0.107
132 | AAGAGTCT | -0.155
133 | CGAGTTAA | 0.291
134 | CGGGCCTC | -0.229
135 | CACTGAAG | -0.0323
136 | AATTGGTA | 0.0935
137 | CCATTAGC | -0.0822
138 | GCTGTCTA | -0.118
139 | CGATTCAG | -0.181
140 | TCCCGACA | 0.00597
141 | AATAAGAA | 0.0407
142 | AGACTTCA | -0.0211
143 | GTCCTCTA | -0.191
144 | AAAGAATA | 0.195
145 | ATGGGCCC | -0.236
146 | CAACGGAC | 0.0644
147 | AGGGCGTC | -0.174
148 | CTTCGTGC | -0.0253
149 | ATTTTACA | 0.41
150 | CTCCCCTA | -0.324

Row | Sequence | PBM E-score
151 | CGCCGCAG | -0.326
152 | CGCTTGCA | -0.0244
153 | GGCGACTA | -0.154
154 | CTCAATCC | 0.0989
155 | TAGCCTCA | -0.192
156 | ACGCCAGC | -0.0249
157 | CCGCTGCC | -0.132
158 | CAAATACC | -0.079
159 | ATGCGAGA | 0.0252
160 | ACGACGCC | -0.0954
161 | CATCAAAG | -0.124
162 | AAACTATA | 0.195
163 | AAACCTTA | 0.115
164 | ACTACGTG | 0.144
165 | CACCGTGG | -0.136
166 | CAGTCCGC | -0.294
167 | AGCTAAAG | -0.0118
168 | GGCTGCGA | -0.265
169 | ACATATAC | 0.314
170 | CGGCAGGC | -0.153
171 | AGGCAAGG | -0.27
172 | ACTGGGAT | 0.0104
